# This is one part of the list.
# B1: PX9961U-pdi-543-24-543 (Parabacteroides distasonis) (protein)
# chain: EEPVGEFLPGQVESEENIEGIVTGAYAVLDGYYASDAINSGCSNWQFGDVVSDDAYKGGGGTGDQNQIHLMEIFNANPTGIDFEARWAALYEGIKRCNQAIRLLNGSEVKNKEQRLAEMRFLRGHYYFNLKIIYNQIPWIDETLVDPNEYNKKSNIEFSSDQLWEKILEEFSAAYKVLPESQADYGRPTKMAARAYMAKVYLYQSKWKECLEACDEVIQSGKYELFPDFRNVFLPENDNCSEIIFAIQLSINDGSPNNENGSYGDRLLPPGGPYPVYGFLRPTQNLVNAYKTDVKGLPYNDGKDVSENDYVDVRLDHTLARPNIPFMDVQLYDWTPREASVYGPYSPKKRLVSLNSTYYSPIWPYVNALNFYVIRYADLLLWRAEAAIETGDLETGRKYINMIRERAKNTQHVKTMDQSQDAANYKVGVYDEPFKSKNEAVQALRMERRLEMAHEGIRFFDLVRWGVADEVINAYIAKEKVFRSHLQNAHFVKGKHEYFPIPQSMIDICGTEVMKQNPGY
# How the values were obtained:
# Assay in all cases: glycan array binding signal (z-score within array); higher = stronger binding
# Conditions in all cases: glycan notation: IUPAC condensed, linker removed
# [1] = biological target: Fuc(a1-2)[Gal(a1-3)]Gal(b1-4)GlcNAc(b1-2)Man(a1-3)[Fuc(a1-2)[Gal(a1-3)]Gal(b1-4)GlcNAc(b1-2)Man(a1-6)]Man(b1-4)GlcNAc(b1-4)[Fuc(a1-6)]GlcNAc
# In short: (§1)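 From the Consortium for Functional Glycomics database, 3228 arrays were curated, keeping only those whose protein sequence was available. Binding is given as a within-array Z-score averaged across arrays sharing a protein sequence and across linkers. Negative Z-scores can be read as non-binding.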
# [2] = biological target: Fuc(a1-2)[Gal(a1-3)]Gal(b1-4)GlcNAc(b1-3)GalNAc
# In short: as §1
# [3] = biological target: Fuc(a1-2)[Gal(a1-3)]Gal(b1-4)GlcNAc(b1-3)[Fuc(a1-2)[Gal(a1-3)]Gal(b1-4)GlcNAc(b1-6)]GalNAc
# In short: as §1
# [4] = biological target: Fuc(a1-2)[Gal(a1-3)]Gal(b1-4)GlcNAc(b1-6)GalNAc
# In short: as §1
# [5] = biological target: Fuc(a1-2)[Gal(a1-3)]Gal(b1-4)[Fuc(a1-3)]Glc
# In short: as §1
# [6] = biological target: Fuc(a1-2)[Gal(a1-3)]Gal(b1-4)[Fuc(a1-3)]GlcNAc
# In short: as §1
# [7] = biological target: Fuc(a1-2)[Gal(a1-3)]Gal(b1-4)[Fuc(a1-3)]GlcNAc(b1-3)GalNAc
# In short: as §1
# [8] = biological target: Fuc(a1-2)[Gal(a1-4)]Gal(b1-4)GlcNAc
# In short: as §1
# [9] = biological target: Fuc(a1-2)[GalNAc(a1-3)]Gal
# In short: as §1
# [10] = biological target: Fuc(a1-2)[GalNAc(a1-3)]Gal(b1-3)GalNAc(a1-3)[Fuc(a1-2)]Gal(b1-4)GlcNAc
# In short: as §1
# [11] = biological target: Fuc(a1-2)[GalNAc(a1-3)]Gal(b1-3)GalNAc(b1-3)Gal(a1-4)Gal(b1-4)Glc
# In short: as §1
# [12] = biological target: Fuc(a1-2)[GalNAc(a1-3)]Gal(b1-3)GlcNAc
# In short: as §1
# [13] = biological target: Fuc(a1-2)[GalNAc(a1-3)]Gal(b1-3)GlcNAc(b1-2)Man(a1-3)[Fuc(a1-2)[GalNAc(a1-3)]Gal(b1-3)GlcNAc(b1-2)Man(a1-6)]Man(b1-4)GlcNAc(b1-4)GlcNAc
# In short: as §1
# [14] = biological target: Fuc(a1-2)[GalNAc(a1-3)]Gal(b1-3)GlcNAc(b1-2)Man(a1-3)[Fuc(a1-2)[GalNAc(a1-3)]Gal(b1-3)GlcNAc(b1-2)Man(a1-6)]Man(b1-4)GlcNAc(b1-4)[Fuc(a1-6)]GlcNAc
# In short: as §1
# [15] = biological target: Fuc(a1-2)[GalNAc(a1-3)]Gal(b1-3)GlcNAc(b1-3)GalNAc
# In short: as §1
# [16] = biological target: Fuc(a1-2)[GalNAc(a1-3)]Gal(b1-3)GlcNAc(b1-6)GalNAc
# In short: as §1
# [17] = biological target: Fuc(a1-2)[GalNAc(a1-3)]Gal(b1-4)Glc
# In short: as §1
# [18] = biological target: Fuc(a1-2)[GalNAc(a1-3)]Gal(b1-4)GlcNAc
# In short: as §1
# [19] = biological target: Fuc(a1-2)[GalNAc(a1-3)]Gal(b1-4)GlcNAc(b1-2)Man
# In short: as §1
# [20] = biological target: Fuc(a1-2)[GalNAc(a1-3)]Gal(b1-4)GlcNAc(b1-2)Man(a1-3)[Fuc(a1-2)[GalNAc(a1-3)]Gal(b1-4)GlcNAc(b1-2)Man(a1-6)]Man(b1-4)GlcNAc(b1-4)GlcNAc
# In short: as §1
# [21] = biological target: Fuc(a1-2)[GalNAc(a1-3)]Gal(b1-4)GlcNAc(b1-2)Man(a1-3)[Fuc(a1-2)[GalNAc(a1-3)]Gal(b1-4)GlcNAc(b1-2)Man(a1-6)]Man(b1-4)GlcNAc(b1-4)[Fuc(a1-6)]GlcNAc
# In short: as §1
# [22] = biological target: Fuc(a1-2)[GalNAc(a1-3)]Gal(b1-4)GlcNAc(b1-3)Gal(b1-4)GlcNAc
# In short: as §1
# [23] = biological target: Fuc(a1-2)[GalNAc(a1-3)]Gal(b1-4)GlcNAc(b1-3)Gal(b1-4)GlcNAc(b1-3)Gal(b1-4)GlcNAc
# In short: as §1
# [24] = biological target: Fuc(a1-2)[GalNAc(a1-3)]Gal(b1-4)GlcNAc(b1-3)GalNAc
# In short: as §1
# [25] = biological target: Fuc(a1-2)[GalNAc(a1-3)]Gal(b1-4)GlcNAc(b1-3)[Fuc(a1-2)[GalNAc(a1-3)]Gal(b1-4)GlcNAc(b1-6)]GalNAc
# In short: as §1
# [26] = biological target: Fuc(a1-2)[GalNAc(a1-3)]Gal(b1-4)GlcNAc(b1-6)GalNAc
# In short: as §1
# [27] = biological target: Fuc(a1-2)[GalNAc(a1-3)]Gal(b1-4)[Fuc(a1-3)]GlcNAc
# In short: as §1
# [28] = biological target: Fuc(a1-2)[GalNAc(a1-3)]Gal(b1-4)[Fuc(a1-3)]GlcNAc(b1-3)GalNAc
# In short: as §1
# [29] = biological target: Fuc(a1-2)[GalNAc(a1-4)]Gal(b1-4)GlcNAc
# In short: as §1
# [30] = biological target: Fuc(a1-2)[GalNAc(b1-3)]Gal
# In short: as §1
binder,measurement,setting,value
B1,glycan array binding signal (z-score),[1],-0.268
same,glycan array binding signal (z-score),[2],-0.25
same,glycan array binding signal (z-score),[3],-0.047
same,glycan array binding signal (z-score),[4],-0.365
same,glycan array binding signal (z-score),[5],-0.381
same,glycan array binding signal (z-score),[6],-0.345
same,glycan array binding signal (z-score),[7],0.272
same,glycan array binding signal (z-score),[8],-0.379
same,glycan array binding signal (z-score),[9],-0.213
same,glycan array binding signal (z-score),[10],-0.338
same,glycan array binding signal (z-score),[11],-0.424
same,glycan array binding signal (z-score),[12],-0.274
same,glycan array binding signal (z-score),[13],-0.368
same,glycan array binding signal (z-score),[14],-0.351
same,glycan array binding signal (z-score),[15],-0.197
same,glycan array binding signal (z-score),[16],0.015
same,glycan array binding signal (z-score),[17],-0.378
same,glycan array binding signal (z-score),[18],-0.304
same,glycan array binding signal (z-score),[19],-0.331
same,glycan array binding signal (z-score),[20],1.34
same,glycan array binding signal (z-score),[21],1.18
same,glycan array binding signal (z-score),[22],-0.461
same,glycan array binding signal (z-score),[23],0.083
same,glycan array binding signal (z-score),[24],-0.275
same,glycan array binding signal (z-score),[25],-0.413
same,glycan array binding signal (z-score),[26],-0.413
same,glycan array binding signal (z-score),[27],-0.275
same,glycan array binding signal (z-score),[28],2.58
same,glycan array binding signal (z-score),[29],1.52
same,glycan array binding signal (z-score),[30],-0.382
